Out of some 390,000 compounds screened, about 2,200 (0.56%) were called active. The inconclusive results got no clear call from the source; some entries with a clear call stand among them for comparison. Calls come from the whole dose curve; as a rule, active = well fitted inhibition curve with a large enough effect; inconclusive = small, poorly fitted or top-dose-only effect; inactive = no such curve, though single readings can be large or run the other way. Where the call is inconclusive, the potency comes from a doubtful curve fit.
Target: Chromobox protein homolog 1 (Homo sapiens) (UniProt P83916)
Experiment: HTS for Inhibitors of HP1-beta Chromodomain Interactions with Methylated Histone Tails; note: nearly all actives have a fitted effect of over 70% in size
Conditions: AlphaScreen HP1-beta / biotin-H3K9me3 peptide binding; series mostly up to 114 µM
In short: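 HP1-beta protein (50 nM final) preincubated 30 min at room temperature with biotinylated H3(1-18)K9me3 peptide (50 nM) in PBS pH 7.4, 0.01% Tween-20, then compound added for 30 min. AlphaScreen streptavidin donor/nickel chelate acceptor beads (10 ug/mL final), 30 min dark, luminescence read.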
Potency is the fitted concentration of half-maximal effect; tags give direction and shape of the fitted curve.

Sequence of UniProt P83916 (P83916 whole entry, looked up): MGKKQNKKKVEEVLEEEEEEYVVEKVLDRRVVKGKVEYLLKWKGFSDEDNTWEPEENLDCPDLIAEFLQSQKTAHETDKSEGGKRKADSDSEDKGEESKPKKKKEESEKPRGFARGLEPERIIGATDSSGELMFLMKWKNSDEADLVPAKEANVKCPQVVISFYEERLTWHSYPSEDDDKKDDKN

SMILES	Potency
O=C(/C=C/c1ccco1)Nc1scc(-c2ccccc2)c1C(=O)O	inconclusive: 70.8 µM [inhibitor, partial curve, poor fit]
COCCNC(=O)Cc1ccc(Br)cc1	inactive
O=C(Cn1c(C2CC2)nc2ccccc2c1=O)Nc1ccc(Br)cc1	inconclusive: 3.98 µM [inhibitor, full curve, poor fit]
CCC1(c2ccc(F)cc2)NC(=O)N(CC(=O)NC2CCCC(C)C2C)C1=O (stereo not given)	inactive
CN(c1ccccc1)c1nc(N)c([N+](=O)[O-])c(N2CCOCC2)n1	inconclusive: 79.4 µM [inhibitor, single point]
Cc1ccc(S(=O)(=O)CCc2nc3ccccc3s2)cc1C	inactive
COc1ccccc1CN1CCN(C(c2ccccc2)c2ccccc2)CC1	inconclusive: 15.8 µM [inhibitor, full curve]
COc1cc([N+](=O)[O-])cc(/C=C2/SC(=S)N(Cc3ccccc3)C2=O)c1O	inconclusive: 15.8 µM [inhibitor, full curve]
CC(=O)c1c(C)[nH]c(C(=O)OCC(=O)c2ccc3c(c2)NC(=O)CO3)c1C	inactive
Cc1cc(N(C)N)nc(NC(=O)NS(=O)(=O)c2ccccc2Cl)n1	inactive
CCOc1ccc(Sc2cc(C(=O)NCCCOC)c3ccccc3n2)cc1	inactive
C#CCOc1ccc(C2C(C(=O)OC)=C(C)NC3=C2C(=O)c2ccccc23)cc1OCC (stereo not given)	inconclusive: 14.1 µM [inhibitor, full curve]
COc1ccc(C)cc1NC(=O)COC(=O)C1CC1	inactive
COc1ccc(N2CCN(CC(=O)N3c4ccccc4CC3C)CC2)cc1 (stereo not given)	active: 25.1 µM
COC(=O)c1cnc(Nc2cccc(C(F)(F)F)c2)c([N+](=O)[O-])c1	inconclusive: 39.8 µM [inhibitor, partial curve, poor fit]
CCOc1ccc(NC(=O)c2ccc(NC(=O)c3ccc(NC(N)=O)cc3)cc2)cc1	inconclusive: 79.4 µM [inhibitor, single point]
COC(=O)c1ccccc1NC(=O)CSc1nc2sc3c(c2c(=O)[nH]1)CCCC3	inconclusive: 2.82 µM [inhibitor, full curve]
COc1cccc(CN(C)CC(O)COc2cc(Cl)ccc2Cl)c1 (stereo not given)	inconclusive: 14.1 µM [inhibitor, partial curve, poor fit]
CCc1cc(-c2nc(N)ncc2-c2ccc(Br)cc2)c(O)cc1OC	inconclusive: 44.7 µM [inhibitor, partial curve]
COc1cc(NC(=O)c2cccc(Cl)c2)c(OC)cc1NC(=O)CN1CCCCC1	inconclusive: 25.1 µM [inhibitor, full curve]
COc1ccc(CNC(=O)c2cc3c(=O)n(Cc4cccs4)ccc3nc2C)cc1	inactive
CC1=[N+](C)c2c(ccc3cccnc23)C1(C)C	inconclusive: 50.1 µM [inhibitor, partial curve, poor fit]
COc1ccccc1N=Nc1c(C)[nH]n(-c2ccccc2)c1=O	inconclusive: 4.47 µM [inhibitor, partial curve, poor fit]

SMILES	Potency
CCOc1ccc(NC(=O)CN(C)S(=O)(=O)c2ccc3c(c2)CCC(=O)N3)cc1	inactive
CCn1cc2nc(SCc3cc(C)ccc3C)n(Cc3ccc(C)cc3)c(=O)c2n1	inactive
Oc1ccc(C=Nc2ccc(N3CCOCC3)cc2)c(O)c1	inconclusive: 50.1 µM [inhibitor, partial curve, poor fit]
CCOc1cc(N2C(=O)CC3CS(=O)(=O)CC32)c(OCC)cc1NC(=O)c1ccccc1 (stereo not given)	inconclusive: 7.08 µM [inhibitor, single point]
Cc1ccc(C2c3cccn3CCN2S(=O)(=O)c2ccc([N+](=O)[O-])cc2)cc1 (stereo not given)	inconclusive: 14.1 µM [inhibitor, full curve]
COc1ccc(-c2[nH]c(-c3ccccc3)nc2SCC(=O)NC2CCCC2)cc1	inconclusive: 35.5 µM [inhibitor, partial curve]
N#Cc1nc(Cc2cccc3ccccc23)oc1NCC1CCCO1 (stereo not given)	inconclusive: 56.2 µM [inhibitor, partial curve, poor fit]
Cc1cccc(C)c1NC(=O)C1CC2CCC1C2 (stereo not given)	inactive
Oc1c(C(Nc2cccc(C(F)(F)F)c2)c2cccnc2)ccc2cccnc12 (stereo not given)	inconclusive: 79.4 µM [inhibitor, partial curve]
Cc1cc(C)nc(-n2nc(C)c3c2NC(=O)CC3c2ccccc2OC(C)C)n1 (stereo not given)	inactive
CN1CC2([N+](=O)[O-])CC=C(OCCO)C([N+](=O)[O-])(C1)C2 (stereo not given)	inactive
CN1C(=O)NC(c2ccc(O)cc2)C2=C1CN(c1ccccc1)C2=O (stereo not given)	inactive
COc1ccccc1N1CCN(C(c2ccccc2)c2nnc(-c3ccccc3Cl)o2)CC1 (stereo not given)	inactive
O=[N+]([O-])c1cccc(-n2cccc2/C=N/Nc2nc(N3CCCCC3)nc(N3CCCCC3)n2)c1	inconclusive: 12.6 µM [inhibitor, partial curve, poor fit]
Cc1ccc(C(=O)NC(=S)Nc2ccc(N3CCN(C(=O)c4ccco4)CC3)cc2)cc1	inconclusive: 11.2 µM [inhibitor, full curve]
NC(=O)c1sc2nc(N3CCOCC3)c3c(c2c1N)CCCC3	inactive
Oc1c(C(c2ccccc2)N2CCOCC2)ccc2ccccc12 (stereo not given)	active: 14.1 µM
Cc1ccc(N2NC(=O)/C(=C\c3cc4c(cc3[N+](=O)[O-])OCO4)C2=O)cc1C	inconclusive: 50.1 µM [inhibitor, single point]
Cn1cccc1CC(=O)N/N=C/C(Cl)=C/c1ccccc1	inconclusive: 35.5 µM [inhibitor, single point]
CC(/C=N/N1CCN(Cc2ccccc2)CC1)=C\c1ccccc1	inconclusive: 22.4 µM [inhibitor, full curve]
COc1cc(NC(=O)CN(C)S(=O)(=O)c2ccc3[nH]c4c(c3c2)CCCC4)cc(OC)c1OC	inconclusive: 70.8 µM [inhibitor, partial curve]
C#CCn1cc(/C=N/Nc2nc3ccccc3[nH]2)c2ccccc21	inconclusive: 56.2 µM [inhibitor, single point]
